# The list shows a part of the results.
# T1: UNK ZnF1-3 (human, UniProt Q9C0B0 31-174)
# T1 sequence: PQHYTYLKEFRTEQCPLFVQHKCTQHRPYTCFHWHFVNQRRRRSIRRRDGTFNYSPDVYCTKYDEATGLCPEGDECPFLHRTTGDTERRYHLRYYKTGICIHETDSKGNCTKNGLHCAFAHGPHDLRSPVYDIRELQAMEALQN
# B1: chr11:13408652:13408653:+_ENSG00000133794_ENST00000403290|hu_mus|FALSE|FALSE (ssRNA)
# RNA: GGGAGUUCUACAGUCCGACGAUCACUUCUUUGUAGUGUAAAAACACCAUACAUCUGAAAUGACCAUUUUGCAUAUAAAAGCUACCAAUGAUGCUUCUGUGCACAAUGAUUAAAAAAUUCAACACAAACAAAAUCCAAAAUAUACAACAGAGGAUUGAGCAUCA
# B2: chr7:88174460:88174461:+_ENSMUSG00000005621_ENSMUST00000107353|mus_hu|FALSE|FALSE (ssRNA)
# RNA: GGGAGUUCUACAGUCCGACGAUCGCACCUGUAGCCCACCUUGCGGGCAUAGUGCAGGCAAUUCUCCUUUACAUGGGUCUGGAAGUAGGCAGAGCGGCAGAGGACCCCACACUCCGGGCAGCAGUAGGGGGACUUGUGUGCAUGCAACAGAGGAUUGAGCAUCA
# B3: chr17:53623224:53623225:+_ENSMUSG00000017831_ENSMUST00000017975|perfect_dup|motif|central (ssRNA)
# RNA: GGGAGUUCUACAGUCCGACGAUCGGCCCGUUGGGUCUUGUUGCGCCUCGACUAGCCAUGUCCAAAUUUGAAAUAAGUCCCGGAUUUCAGACUCUUCAAUGAACUUCCAGAAUUCAAGGGGCCAAUAUUCUUCUUUCUGGAGGUCAACAGAGGAUUGAGCAUCA
# B4: chrX:148277548:148277549:+_ENSMUSG00000025261_ENSMUST00000112622|mus_mus|FALSE|FALSE (ssRNA)
# RNA: GGGAGUUCUACAGUCCGACGAUCAAGGACUGCCAGCACCACUUGCAUAUCAGAGGAAGCCAAUAAAGUUGUCAAAUGCUCUAUGGAACUGUACAGAUGCCGAGAAAAGCUGUACUCAAUGAGCAAGGCUGUGAAGUUCAAUACCAACAGAGGAUUGAGCAUCA
# B5: 23954620_23954740_3588_CDS_ENSMUSG00000039218_ENSMUST00000088621|mouse|control|control (ssRNA)
# RNA: GGGAGUUCUACAGUCCGACGAUCGUUACUUCCAGGCAUUUCUUUAUGUUCUGGAGAUAAACUGGGUAGAACUUGGCUUAAAGGUUGCUCAGACUUUUCUACUUCCAUUAGUUCAUCUUGACUUGAAUUAGGUAAUAAACUUUUCAACAGAGGAUUGAGCAUCA
# B6: chr12:39756943:39756944:-_ENSG00000139116_ENST00000544797|hu_mus|hu_hu_hu_mus_False|8_88 (ssRNA)
# RNA: GGGAGUUCUACAGUCCGACGAUCGGUUUGGCUGUUACCCCCAAGGGAAUCCUGUAGGAGUCUUGUCAGCUUAGAGUCUCUGUAAGGGACAUGGGUGGCUCUCUUGCUCUUGUCCCCCAAGGCGCUGAUUACAUUGCCAAGAGCCAACAGAGGAUUGAGCAUCA
# Target: T1, UNK ZnF1-3
# Experiment: nsRBNS (natural sequence RNA bind-n-seq); RBNS binding buffer (assumed for nsRBNS): 25 mM Tris pH 7.5, 150 mM KCl, 3 mM MgCl2, 0.01% Triton X-100, 500 ug/ml BSA, 20 U/ml SUPERase-In, 4 C; UNK is unkempt and MSI1 is Musashi-1; names of the RNAs are library labels; protein concentration not given here; high values mean tight binding
row,Binder,binding signal
1,B1,0.742 enrichment R
2,B2,1.55 enrichment R
3,B3,0.858 enrichment R
4,B4,2.13 enrichment R
5,B5,0.632 enrichment R
6,B6,0.641 enrichment R

# — article PMC12136788
